Test results from publication PMC12222028.
No constants are given. Whether binding was seen depends on the method and setting. For some assays here: In cells and extracts the contact can be indirect. Some results given as binding are weak or reduced against the parent protein; the word gives no strength. For some assays here: Tags and fused reporters may be left off the sequences shown.

B1: CLCN7 (protein, UniProt P51798 1-805)
chain: MANVSKKVSWSGRDRDDEEAAPLLRRTARPGGGTPLLNGAGPGAARQSPRSALFRVGHMSSVELDDELLDPDMDPPHPFPKEIPHNEKLLSLKYESLDYDNSENQLFLEEERRINHTAFRTVEIKRWVICALIGILTGLVACFIDIVVENLAGLKYRVIKGNIDKFTEKGGLSFSLLLWATLNAAFVLVGSVIVAFIEPVAAGSGIPQIKCFLNGVKIPHVVRLKTLVIKVSGVILSVVGGLAVGKEGPMIHSGSVIAAGISQGRSTSLKRDFKIFEYFRRDTEKRDFVSAGAAAGVSAAFGAPVGGVLFSLEEGASFWNQFLTWRIFFASMISTFTLNFVLSIYHGNMWDLSSPGLINFGRFDSEKMAYTIHEIPVFIAMGVVGGVLGAVFNALNYWLTMFRIRYIHRPCLQVIEAVLVAAVTATVAFVLIYSSRDCQPLQGGSMSYPLQLFCADGEYNSMAAAFFNTPEKSVVSLFHDPPGSYNPLTLGLFTLVYFFLACWTYGLTVSAGVFIPSLLIGAAWGRLFGISLSYLTGAAIWADPGKYALMGAAAQLGGIVRMTLSLTVIMMEATSNVTYGFPIMLVLMTAKIVGDVFIEGLYDMHIQLQSVPFLHWEAPVTSHSLTAREVMSTPVTCLRRREKVGVIVDVLSDTASNHNGFPVVEHADDTQPARLQGLILRSQLIVLLKHKVFVERSNLGLVQRRLRLKDFRDAYPRFPPIQSIHVSQDERECTMDLSEFMNPSPYTVPQEASLPRVFKLFRALGLRHLVVVDNRNQVVGLVTRKDLARYRLGKRGLEELSLAQT
B2: TMEM30A (protein, UniProt Q9NV96 1-361)
chain: MAMNYNAKDEVDGGPPCAPGGTAKTRRPDNTAFKQQRLPAWQPILTAGTVLPIFFIIGLIFIPIGIGIFVTSNNIREIEIDYTGTEPSSPCNKCLSPDVTPCFCTINFTLEKSFEGNVFMYYGLSNFYQNHRRYVKSRDDSQLNGDSSALLNPSKECEPYRRNEDKPIAPCGAIANSMFNDTLELFLIGNDSYPIPIALKKKGIAWWTDKNVKFRNPPGGDNLEERFKGTTKPVNWLKPVYMLDSDPDNNGFINEDFIVWMRTAALPTFRKLYRLIERKSDLHPTLPAGRYSLNVTYNYPVHYFDGRKRMILSTISWMGGKNPFLGIAYIAVGSISFLLGVVLLVINHKYRNSSNTADITI
B3: HA–TMEM230 (protein, UniProt Q96A57 1-120)
chain: MMPSRTNLATGIPSSKVKYSRLSSTDDGYIDLQFKKTPPKIPYKAIALATVLFLIGAFLIIIGSLLLSGYISKGGADRAVPVLIIGILVFLPGFYHLRIAYYASKGYRGYSYDDIPDFDD
B4: TMEM30A–V5 (protein, UniProt Q9NV96 1-361)
chain: B2 chain
B5: Flag–ATP11B (protein, UniProt Q9Y2G3 1-1177)
chain: MWRWIRQQLGFDPPHQSDTRTIYVANRFPQNGLYTPQKFIDNRIISSKYTVWNFVPKNLFEQFRRVANFYFLIIFLVQLMIDTPTSPVTSGLPLFFVITVTAIKQGYEDWLRHNSDNEVNGAPVYVVRSGGLVKTRSKNIRVGDIVRIAKDEIFPADLVLLSSDRLDGSCHVTTASLDGETNLKTHVAVPETALLQTVANLDTLVAVIECQQPEADLYRFMGRMIITQQMEEIVRPLGPESLLLRGARLKNTKEIFGVAVYTGMETKMALNYKSKSQKRSAVEKSMNTFLIIYLVILISEAVISTILKYTWQAEEKWDEPWYNQKTEHQRNSSKILRFISDFLAFLVLYNFIIPISLYVTVEMQKFLGSFFIGWDLDLYHEESDQKAQVNTSDLNEELGQVEYVFTDKTGTLTENEMQFRECSINGMKYQEINGRLVPEGPTPDSSEGNLSYLSSLSHLNNLSHLTTSSSFRTSPENETELIKEHDLFFKAVSLCHTVQISNVQTDCTGDGPWQSNLAPSQLEYYASSPDEKALVEAAARIGIVFIGNSEETMEVKTLGKLERYKLLHILEFDSDRRRMSVIVQAPSGEKLLFAKGAESSILPKCIGGEIEKTRIHVDEFALKGLRTLCIAYRKFTSKEYEEIDKRIFEARTALQQREEKLAAVFQFIEKDLILLGATAVEDRLQDKVRETIEALRMAGIKVWVLTGDKHETAVSVSLSCGHFHRTMNILELINQKSDSECAEQLRQLARRITEDHVIQHGLVVDGTSLSLALREHEKLFMEVCRNCSAVLCCRMAPLQKAKVIRLIKISPEKPITLAVGDGANDVSMIQEAHVGIGIMGKEGRQAARNSDYAIARFKFLSKLLFVHGHFYYIRIATLVQYFFYKNVCFITPQFLYQFYCLFSQQTLYDSVYLTLYNICFTSLPILIYSLLEQHVDPHVLQNKPTLYRDISKNRLLSIKTFLYWTILGFSHAFIFFFGSYLLIGKDTSLLGNGQMFGNWTFGTLVFTVMVITVTVKMALETHFWTWINHLVTWGSIIFYFVFSLFYGGILWPFLGSQNMYFVFIQLLSSGSAWFAIILMVVTCLFLDIIKKVFDRHLHPTSTEKAQLTETNAGIKCLDSMCCFPEGEAACASVGRMLERVIGRCSPTHISRSWSASDPFYTNDRSILTLSTMDSSTC

Key:
[1] = biological target: T1, RMC1 (human (endogenous in HEK293)) (UniProt Q96DM3); experiment: cross-linking; XL-MS: intact early endosomes (Endo-IP, HEK293 cells expressing Flag-EEA1, eluted with 3xFlag peptide, no detergent) cross-linked with 1 mM DSSO in KPBS at room temperature for 40 min; XlinkX, 5% FDR
T1 sequence: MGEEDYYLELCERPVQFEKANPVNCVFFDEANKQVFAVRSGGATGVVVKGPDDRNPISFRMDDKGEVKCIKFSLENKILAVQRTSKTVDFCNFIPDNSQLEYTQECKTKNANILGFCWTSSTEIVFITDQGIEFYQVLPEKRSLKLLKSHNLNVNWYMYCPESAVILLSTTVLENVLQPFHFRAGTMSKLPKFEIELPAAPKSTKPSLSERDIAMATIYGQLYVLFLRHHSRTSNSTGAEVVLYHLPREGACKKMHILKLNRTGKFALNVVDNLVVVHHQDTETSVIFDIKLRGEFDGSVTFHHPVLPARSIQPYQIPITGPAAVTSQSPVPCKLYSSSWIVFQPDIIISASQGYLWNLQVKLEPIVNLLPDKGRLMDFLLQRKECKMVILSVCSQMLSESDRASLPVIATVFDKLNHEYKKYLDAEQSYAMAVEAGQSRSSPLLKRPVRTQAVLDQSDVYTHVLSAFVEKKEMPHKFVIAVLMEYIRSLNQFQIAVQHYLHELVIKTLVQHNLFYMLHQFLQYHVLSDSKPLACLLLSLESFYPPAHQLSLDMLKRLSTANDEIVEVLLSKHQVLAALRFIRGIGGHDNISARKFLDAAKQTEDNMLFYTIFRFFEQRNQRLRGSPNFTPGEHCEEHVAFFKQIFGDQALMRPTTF

[2] = biological target: T2, ATP11B (human (endogenous in HEK293)) (UniProt Q9Y2G3); experiment: native gel or EMSA; BN-MS: 0.5% DDM extract of purified early endosomes (HEK293) on a 4-16% NativePAGE gel, 48 slices, DIA mass spectrometry; co-fractionation profiles
T2 sequence: B5 chain

Flag–ATP11B (human) = biological target: T3, Flag–ATP11B (human) (UniProt Q9Y2G3); experiment: co-IP; HEK293 cells transfected with tagged proteins; 0.5% DDM, 25 mM HEPES pH 7.4, 150 mM NaCl; anti-HA or anti-Flag magnetic beads; immunoblot
T3 sequence: B5 chain

[3] = biological target: T4, HA–TMEM230(Y29C/R78L/X121W) (human) (UniProt Q96A57); experiment: as above
T4 sequence: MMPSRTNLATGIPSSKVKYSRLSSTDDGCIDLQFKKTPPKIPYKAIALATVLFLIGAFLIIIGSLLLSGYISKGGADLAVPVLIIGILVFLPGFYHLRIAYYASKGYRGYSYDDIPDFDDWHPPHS

HA–TMEM230 (human) = biological target: T5, HA–TMEM230 (human) (UniProt Q96A57); experiment: as above
T5 sequence: B3 chain

Binder	binding (Flag–ATP11B (human))	binding [3]	binding (HA–TMEM230 (human))	also measured
B1				binding [1]: binds
B2				binding [2]: binds
B3	binds			
B4	binds	no binding	binds	
B5		no binding	binds	
